# Data: the supplement of paper PMC8728848
# The list shows a part of the results.
# B1: Malectin (Xenopus laevis), Q6INX3 (protein)
# chain: SGLADKVIWAVNAGGESHVDVHGIHYRKDPLEGRVGRASDYGMKLPILRSNPEDQVLYQTERYNEDSFGYDIPIKEEGEYVLVLKFAEVYFAQSQQKVFDVRVNGHTVVKDLDIFDRVGHSTAHDEIIPISIKKGKLSVQGEVSTFTGKLSVEFVKGYYDNPKVCALFIMKGTADDVPMLQPHPGLE
# Columns and labels:
# Test in all cases: glycan array binding signal (z-score within array); higher = stronger binding
# Details in all cases: glycan notation: IUPAC condensed, linker removed
# [1] = molecular target: Neu5Ac(a2-3)Gal(b1-4)[Fuc(a1-3)]GlcNAc(b1-3)Gal(b1-4)Glc
# How it was run: (§1)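 The binding signal is a Z-score computed within each array and averaged over linkers. Arrays of the same protein sequence at different concentrations or buffers were also averaged together. Data originate from 3228 arrays in the Consortium for Functional Glycomics database, kept only where the protein sequence was available.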
# [2] = molecular target: Neu5Ac(a2-3)Gal(b1-4)[Fuc(a1-3)]GlcNAc(b1-3)Gal(b1-4)[Fuc(a1-3)]GlcNAc(b1-3)Gal(b1-4)Glc
# How it was run: as §1
# [3] = molecular target: Neu5Ac(a2-3)Gal(b1-4)[Fuc(a1-3)]GlcNAc6S(b1-3)Gal(b1-4)Glc
# How it was run: as §1
# [4] = molecular target: Neu5Ac(a2-3)Gal(b1-4)[Fuc(a1-3)]GlcNAc6S(b1-3)Gal6S(b1-3)GlcNAc6S
# How it was run: as §1
# [5] = molecular target: Neu5Ac(a2-3)Gal6S(b1-4)[Fuc(a1-3)]GlcNAc(b1-3)Gal(b1-4)Glc
# How it was run: as §1
# [6] = molecular target: Neu5Ac(a2-3)Gal6S(b1-4)[Fuc(a1-3)]GlcNAc6S(b1-3)Gal(b1-4)Glc
# How it was run: as §1
# [7] = molecular target: Neu5Ac(a2-3)[GalNAc(b1-4)]Gal(b1-3)GalNAc(b1-4)[Neu5Ac(a2-3)]Gal(b1-4)Glc
# How it was run: as §1
# [8] = molecular target: Neu5Ac(a2-3)[GalNAc(b1-4)]Gal(b1-4)Glc
# How it was run: as §1
# [9] = molecular target: Neu5Ac(a2-6)Gal(b1-3)GlcNAc(b1-3)[Fuc(a1-3)[Gal(b1-4)]GlcNAc(b1-6)]Gal(b1-4)Glc
# How it was run: as §1
# [10] = molecular target: Neu5Ac(a2-6)Gal(b1-3)GlcNAc(b1-3)[Gal(b1-4)GlcNAc(b1-6)]Gal(b1-4)Glc
# How it was run: as §1
# Neu5Ac(a2-6)Gal(b1-4)Glc = molecular target: Neu5Ac(a2-6)Gal(b1-4)Glc
# How it was run: as §1
# [11] = molecular target: Neu5Ac(a2-6)Gal(b1-4)GlcNAc
# How it was run: as §1
# [12] = molecular target: Neu5Ac(a2-6)Gal(b1-4)GlcNAc(b1-2)Man(a1-3)[Neu5Ac(a2-6)Gal(b1-4)GlcNAc(b1-2)Man(a1-6)]Man(b1-4)GlcNAc(b1-4)GlcNAc
# How it was run: as §1
# [13] = molecular target: Neu5Ac(a2-6)Gal(b1-4)GlcNAc(b1-2)Man(a1-3)[Neu5Gc(a2-6)Gal(b1-4)GlcNAc(b1-2)Man(a1-6)]Man(b1-4)GlcNAc(b1-4)GlcNAc
# How it was run: as §1
# [14] = molecular target: Neu5Ac(a2-6)Gal(b1-4)GlcNAc(b1-2)[Neu5Ac(a2-3)Gal(b1-4)GlcNAc(b1-4)]Man(a1-3)[Neu5Ac(a2-3)Gal(b1-4)GlcNAc(b1-2)Man(a1-6)]Man(b1-4)GlcNAc(b1-4)GlcNAc
# How it was run: as §1
# [15] = molecular target: Neu5Ac(a2-6)Gal(b1-4)GlcNAc(b1-3)Gal(b1-4)Glc
# How it was run: as §1
# [16] = molecular target: Neu5Ac(a2-6)Gal(b1-4)GlcNAc(b1-3)[Neu5Ac(a2-6)Gal(b1-4)GlcNAc(b1-6)]Gal(b1-4)Glc
# How it was run: as §1
# [17] = molecular target: Neu5Ac(a2-6)Gal(b1-4)GlcNAc(b1-6)[Gal(b1-3)GlcNAc(b1-3)]Gal(b1-4)Glc
# How it was run: as §1
# [18] = molecular target: Neu5Ac(a2-6)Gal(b1-4)[Fuc(a1-3)]GlcNAc(b1-3)Gal(b1-4)Glc
# How it was run: as §1
# Neu5Ac(a2-8)Neu5Ac = molecular target: Neu5Ac(a2-8)Neu5Ac
# How it was run: as §1
# [19] = molecular target: Neu5Ac(a2-8)Neu5Ac(a2-3)Gal(b1-3)GalNAc(b1-4)[Neu5Ac(a2-3)]Gal(b1-4)Glc
# How it was run: as §1
# [20] = molecular target: Neu5Ac(a2-8)Neu5Ac(a2-3)Gal(b1-3)GalNAc(b1-4)[Neu5Ac(a2-8)Neu5Ac(a2-3)]Gal(b1-4)Glc
# How it was run: as §1
# [21] = molecular target: Neu5Ac(a2-8)Neu5Ac(a2-3)Gal(b1-4)Glc
# How it was run: as §1
# [22] = molecular target: Neu5Ac(a2-8)Neu5Ac(a2-3)[Gal(b1-3)GalNAc(b1-4)]Gal(b1-4)Glc
# How it was run: as §1
# [23] = molecular target: Neu5Ac(a2-8)Neu5Ac(a2-3)[GalNAc(b1-4)]Gal(b1-4)Glc
# How it was run: as §1
# [24] = molecular target: Neu5Ac(a2-8)Neu5Ac(a2-8)Neu5Ac
# How it was run: as §1
# [25] = molecular target: Neu5Ac(a2-8)Neu5Ac(a2-8)Neu5Ac(a2-8)Neu5Ac
# How it was run: as §1
# [26] = molecular target: Neu5Ac(a2-8)Neu5Ac(a2-8)Neu5Ac(a2-8)Neu5Ac(a2-8)Neu5Ac
# How it was run: as §1
# [27] = molecular target: Neu5Ac(a2-8)Neu5Ac(a2-8)Neu5Ac(a2-8)Neu5Ac(a2-8)Neu5Ac(a2-8)Neu5Ac
# How it was run: as §1
# [28] = molecular target: Neu5Ac(a2-8)Neu5Ac(a2-8)Neu5Ac(a2-8)Neu5Ac(a2-8)Neu5Ac(a2-8)Neu5Ac(a2-8)Neu5Ac
# How it was run: as §1
# [29] = molecular target: Neu5Ac(a2-8)Neu5Ac(a2-8)Neu5Ac(a2-8)Neu5Ac(a2-8)Neu5Ac(a2-8)Neu5Ac(a2-8)Neu5Ac(a2-8)Neu5Ac
# How it was run: as §1
# [30] = molecular target: Neu5Ac(a2-8)Neu5Ac(a2-8)Neu5Ac(a2-8)Neu5Ac(a2-8)Neu5Ac(a2-8)Neu5Ac(a2-8)Neu5Ac(a2-8)Neu5Ac(a2-8)Neu5Ac
# How it was run: as §1
# [31] = molecular target: Neu5Ac(a2-8)Neu5Ac(a2-8)Neu5Ac(a2-8)Neu5Ac(a2-8)Neu5Ac(a2-8)Neu5Ac(a2-8)Neu5Ac(a2-8)Neu5Ac(a2-8)Neu5Ac(a2-8)Neu5Ac
# How it was run: as §1
# [32] = molecular target: Neu5Ac(a2-8)Neu5Ac(a2-8)Neu5Ac(a2-8)Neu5Ac(a2-8)Neu5Ac(a2-8)Neu5Ac(a2-8)Neu5Ac(a2-8)Neu5Ac(a2-8)Neu5Ac(a2-8)Neu5Ac(a2-8)Neu5Ac
# How it was run: as §1
# Neu5Ac(b2-3)Gal(b1-4)Glc = molecular target: Neu5Ac(b2-3)Gal(b1-4)Glc
# How it was run: as §1
# Neu5Ac(b2-6)Gal(b1-4)Glc = molecular target: Neu5Ac(b2-6)Gal(b1-4)Glc
# How it was run: as §1
# [33] = molecular target: Neu5Ac9Ac(a2-6)Gal(b1-4)GlcNAc
# How it was run: as §1
# Neu5Gc(a2-3)Gal(b1-4)Glc = molecular target: Neu5Gc(a2-3)Gal(b1-4)Glc
# How it was run: as §1
# [34] = molecular target: Neu5Gc(a2-3)[GalNAc(b1-4)]Gal
# How it was run: as §1
# [35] = molecular target: Neu5Gc(a2-6)Gal(b1-4)GlcNAc(b1-2)Man(a1-3)[Neu5Gc(a2-6)Gal(b1-4)GlcNAc(b1-2)Man(a1-6)]Man(b1-4)GlcNAc(b1-4)GlcNAc
# How it was run: as §1
# [36] = molecular target: Xyl(a1-6)Glc(b1-4)[Xyl(a1-6)]Glc(b1-4)[Xyl(a1-6)]Glc(b1-4)Glc
# How it was run: as §1
# [37] = molecular target: Xyl(b1-2)[Man(a1-3)][Man(a1-6)]Man(b1-4)GlcNAc(b1-4)GlcNAc
# How it was run: as §1
# [38] = molecular target: Xyl(b1-2)[Man(a1-3)][Man(a1-6)]Man(b1-4)GlcNAc(b1-4)[Fuc(a1-3)]GlcNAc
# How it was run: as §1
# [39] = molecular target: Xyl(b1-4)Xyl(b1-4)Xyl(b1-4)Xyl(b1-4)Xyl
# How it was run: as §1
binder,measurement,setting,value
B1,glycan array binding signal (z-score),[1],-0.076
same,glycan array binding signal (z-score),[2],-0.069
same,glycan array binding signal (z-score),[3],-0.076
same,glycan array binding signal (z-score),[4],-0.076
same,glycan array binding signal (z-score),[5],-0.074
same,glycan array binding signal (z-score),[6],-0.076
same,glycan array binding signal (z-score),[7],-0.076
same,glycan array binding signal (z-score),[8],-0.076
same,glycan array binding signal (z-score),[9],-0.076
same,glycan array binding signal (z-score),[10],-0.076
same,glycan array binding signal (z-score),Neu5Ac(a2-6)Gal(b1-4)Glc,-0.072
same,glycan array binding signal (z-score),[11],-0.076
same,glycan array binding signal (z-score),[12],-0.076
same,glycan array binding signal (z-score),[13],-0.076
same,glycan array binding signal (z-score),[14],-0.076
same,glycan array binding signal (z-score),[15],-0.075
same,glycan array binding signal (z-score),[16],-0.076
same,glycan array binding signal (z-score),[17],-0.076
same,glycan array binding signal (z-score),[18],-0.076
same,glycan array binding signal (z-score),Neu5Ac(a2-8)Neu5Ac,-0.073
same,glycan array binding signal (z-score),[19],-0.076
same,glycan array binding signal (z-score),[20],-0.076
same,glycan array binding signal (z-score),[21],-0.076
same,glycan array binding signal (z-score),[22],-0.076
same,glycan array binding signal (z-score),[23],-0.076
same,glycan array binding signal (z-score),[24],-0.072
same,glycan array binding signal (z-score),[25],-0.073
same,glycan array binding signal (z-score),[26],-0.076
same,glycan array binding signal (z-score),[27],-0.076
same,glycan array binding signal (z-score),[28],-0.076
same,glycan array binding signal (z-score),[29],-0.075
same,glycan array binding signal (z-score),[30],-0.073
same,glycan array binding signal (z-score),[31],-0.076
same,glycan array binding signal (z-score),[32],-0.075
same,glycan array binding signal (z-score),Neu5Ac(b2-3)Gal(b1-4)Glc,-0.065
same,glycan array binding signal (z-score),Neu5Ac(b2-6)Gal(b1-4)Glc,-0.074
same,glycan array binding signal (z-score),[33],-0.073
same,glycan array binding signal (z-score),Neu5Gc(a2-3)Gal(b1-4)Glc,-0.067
same,glycan array binding signal (z-score),[34],-0.049
same,glycan array binding signal (z-score),[35],-0.076
same,glycan array binding signal (z-score),[36],-0.07
same,glycan array binding signal (z-score),[37],-0.075
same,glycan array binding signal (z-score),[38],-0.076
same,glycan array binding signal (z-score),[39],-0.071
